Consider 44 sequences from the supplement of paper PMC11417369.

Some of the results follow.

The test system of this experiment is PF3D7_0420300 AP2 domain 1 (GST-tagged). The experiment is described as follows: gcPBM binding intensity (ln(normalized median fluorescence intensity)); higher = stronger DNA binding. In short, it runs like this:
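Using an Agilent 4 × 180k array, primer-extended double-stranded 36-bp intergenic genomic probes and negative controls were exposed for 1 h to GST-fused P. falciparum DNA-binding domains expressed in E. coli. Binding was carried out in 1× PBS with 1% milk, 0.2 mg/ml BSA, 0.5% salmon testes DNA and 0.03% Triton X-100, and protein was detected with Alexa488 anti-GST antibody and a 488 nm scan. Binding intensity is the highest Masliner-normalised natural-log median intensity across replicate spots of either probe orientation.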
With “TATAAATAAAGATATACACACATATAAATATTTTTC [CACACA_site7798]”, the “gcPBM binding intensity (ln)” value was found to be 9.5. To “TTGGTCTTTTAAAAAAGTACAAAAAAAAAAAAAAAA [XGTACX_site1665]” belongs 8.5; to “TTTTAATTTATTAATTGTACATGTATTTTAAGATTA [XGTACX_site8417]”, 9.

“TTATTATTAAAAAAAAGTACAGAATTGAATAATACA [XGTACX_site651]”: the “gcPBM binding intensity (ln)” value stood at 9.23.

Consider “ATTTTTGTGTATTAATGTACTTTATGCATATTTGAC [XGTACX_site3353]”, for which the “gcPBM binding intensity (ln)” value was 9.5. In the case of “TAAACATTTGGCTGATGTACTTGCTACCTTAAATCA [XGTACX_site5514]” it was 9.1; in that of “TATTTTTATAAGTAAAAGGAGCACAGTTAAAGGATC [XGTACX_negctrl_site362]”, 9.72. In the case of “TTTATAAAAATGAACACACACATATAAATATAAATA [CACACA_site7607]”, the “gcPBM binding intensity (ln)” value was 9.91. In the case of “TTTTAAATATGAACATGTACATGTAAATTTACATGT [XGTACX_site4573]” it was 9.07. For “AATAATATATTTAGGGGTACATAATAATATATTTTA [XGTACX_site8366]”, the “gcPBM binding intensity (ln)” value stood at 9.27. As to “AAAAATAGAATAAATACACACCCGTGTAACGGATTT [CACACA_site3372]”, the “gcPBM binding intensity (ln)” value was 9.45. In the case of “ATTAAATACATTAACACACACACAAATATATACATA [CACACA_site2881]” it was 10.1. On to “AATAATAATACTAATCGTACGCATATTTTTCAAACC [XGTACX_site8055]”, for which the “gcPBM binding intensity (ln)” value worked out at 9.36. To “CATTTAACATAAATTAAACACACAATATAATACATT [CACACA_site8333]” belongs 9.54; to “AAAGATAAAATATTATGTACATATATATATATATAT [XGTACX_site5079]”, 9.09; to “TATAAAAAAAACAAAAAAAAAAAAAAACAAAAAAAA [TGCATGCA_negctrl_site514]”, 9.44. Regarding “TTTTTTTGTTGTTGTTGTACGATATTTTCCTTATCA [XGTACX_site2375]”, the “gcPBM binding intensity (ln)” value came to 9.61. To “TGTATAAAAGTTTATACACACATTTGATATATTTCA [CACACA_site6606]” belongs 9.24.

As to “TTTTATTTTTATTATACACACGCTTAATAAATGCAT [CACACA_site1751]”, the “gcPBM binding intensity (ln)” value was 9.29.

As to “GGGAATATAAGTACACGATAATATGTGATAAGGTCT [CACACA_negctrl_site1502]”, the “gcPBM binding intensity (ln)” value stood at 9.5.

As to “GGGGGGATGAGATATTGTACTTTTTAGGAAAGTGTA [XGTACX_site2835]”, the “gcPBM binding intensity (ln)” value came to 10.

For the sequence “AAAAAAAAGTTAAGCACACACATGAATAAATAATAC [CACACA_site840]”, the “gcPBM binding intensity (ln)” value amounted to 9.89. In the case of “CCTAGAAAAGTATATACACACGCGCAAAATAAAATT [CACACA_site1413]”, the “gcPBM binding intensity (ln)” value came to 9.7. Take “TTAACCGGTTTATGGGTGCACATTCTTCTTAAATAA [GTGCAC_site9928]”: the “gcPBM binding intensity (ln)” value was found to be 9.13. Consider “CATGTTCATCAGAACGCACACATAATGGTTTACTTA [CACACA_site898]”, for which the “gcPBM binding intensity (ln)” value came to 9.39. To “AAGAAAAAAAAAATTACACACTGCGCACATACACAA [CACACA_site6721]” belongs 9.82. Regarding “ACTTATATAAAACATTAACACACAAAGAAAAAAAAT [CACACA_site8529]”, the “gcPBM binding intensity (ln)” value was determined as 9.96. In the case of “GATACACCAAATAACTGTACGCACGTGTAATATTAA [XGTACX_site3441]” it was 9.29. In the case of “GTGTATATGTATATATGTACATAAATTTTTTTTTTT [XGTACX_site7083]” it was 9.06; in that of “AGTAACTAATTAAATGCATGTCGATATATATTATAT [TGCATGCA_site1038]”, 9.35; in that of “TATATATATATATATACACACATATATACCTATATA [CACACA_site6085]”, 9.31. To “TATAATGATAATAATAGTACACATTAGAACGGGAGG [XGTACX_site2563]” belongs 9.67. As for “TCTTTTTTTTATTATATCATTGAAATGTTAAAACGA [XGTACX_negctrl_site473]”, the “gcPBM binding intensity (ln)” value was found to be 8.99. To “ATAATATTATTTAAAAGTACTAACAAAAGAATATTA [XGTACX_site4989]” belongs 9.27. Consider “CCTATTATTTCTAAAACACACAAAAATATAAAAGAA [CACACA_site2708]”, for which the “gcPBM binding intensity (ln)” value was determined as 9.47.

On to “TTTTGATAGAAGTGTTCTAGGAATTCAACTGTAATA [GTGCAC_negctrl_site585]”, for which the “gcPBM binding intensity (ln)” value was found to be 8.95. As for “TGAAAAAAAAAATACACACACGAGTTGTTATACATA [CACACA_site7486]”, the “gcPBM binding intensity (ln)” value amounted to 9.67.

In the case of “ATTAAAAAAATTGGCACACATAAAAATATATAAAAA [CACACA_site2748]”, the “gcPBM binding intensity (ln)” value came to 9.53.

For “GTTTTTAATGTTTTGACATGCAATATTAAAAATAAT [TGCATGCA_site174]”, the “gcPBM binding intensity (ln)” value came out at 8.95. In the case of “AACAGATATGAATAGAAAAAAAAAAATGGCCCATAT [TGCATGCA_negctrl_site443]” it was 9.26; in that of “GACCACTTTAGGATTTGTACACATATTATATATGCA [XGTACX_site6579]”, 9.44. In the case of “ATAAAAAAAAATAACACACAGACATAAGAATAAATA [CACACA_site4162]” it was 9.77; in that of “TAGCCATTTTTATATTGTACTTATATAATCACATTT [XGTACX_site4407]”, 9.35. To “ATATAAGAAAAGCACACACACACAAAAAAAAAAAAA [CACACA_site2827]” belongs 10.1.
